Assay results published in publication PMC6919601, “Identification of Plasmodium dipeptidyl aminopeptidase allosteric inhibitors by high throughput screening” (PLoS ONE, 2019).
The whole screen tested about 110,000 compounds, of which about 230 (0.21%) showed an effect of 50% or more. The list shows a part of the results.

Molecular target: DPAP1 (Plasmodium falciparum, UniProt Q8IIJ9)
Experiment: primary screen, percent inhibition; read by cleavage of a fluorogenic dipeptide substrate; higher = more effect of the substance
Set-up: species or system P. falciparum D10 trophozoite lysates; single well
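Also: 30 min substrate incubation versus DMSO and 10 µM JCP410 controls.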

Sequence of DPAP1 (Q8IIJ9 whole entry, looked up): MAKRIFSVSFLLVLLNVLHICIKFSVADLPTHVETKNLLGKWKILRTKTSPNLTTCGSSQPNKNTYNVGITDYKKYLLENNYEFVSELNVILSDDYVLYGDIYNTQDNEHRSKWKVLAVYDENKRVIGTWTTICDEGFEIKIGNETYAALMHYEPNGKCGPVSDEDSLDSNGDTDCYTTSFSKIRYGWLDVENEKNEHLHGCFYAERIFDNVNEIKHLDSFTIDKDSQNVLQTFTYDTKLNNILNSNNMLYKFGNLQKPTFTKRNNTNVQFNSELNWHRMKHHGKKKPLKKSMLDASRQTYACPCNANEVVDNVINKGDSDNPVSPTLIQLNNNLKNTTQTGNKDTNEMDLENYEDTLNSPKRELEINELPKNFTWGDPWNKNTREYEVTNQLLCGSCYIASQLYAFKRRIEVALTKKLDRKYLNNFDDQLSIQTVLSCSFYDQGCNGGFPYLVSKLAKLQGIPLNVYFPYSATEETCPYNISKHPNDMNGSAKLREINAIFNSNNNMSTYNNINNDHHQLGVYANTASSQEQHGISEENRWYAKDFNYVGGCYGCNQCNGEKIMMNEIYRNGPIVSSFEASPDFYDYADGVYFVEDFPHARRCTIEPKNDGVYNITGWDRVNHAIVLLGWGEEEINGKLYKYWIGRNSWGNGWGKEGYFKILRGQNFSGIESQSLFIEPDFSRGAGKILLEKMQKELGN

| SMILES | % Inhibition @ 10 uM [%] |
| --- | --- |
| CC(C)CSC1=NSC2=NC(=O)/C(=C\c3ccc(C(=O)O)cc3)C(=N)N12 | 0.968 |
| Cc1nn(CC(=O)N2CCC(Cc3ccccc3)CC2)c(=O)c2ccccc12 | 0.565 |
| Cc1ccc(NC(=O)C2CC=CCC2C(=O)O)c(C)c1 (stereo not shown) | -12 |
| Cc1ccc(CNc2ncnc3c2nc2n3CCCCC2)cc1 | -4.33 |
| COc1ccc(C2N(C(=O)C(F)(F)F)CCN2S(=O)(=O)c2ccccc2)cc1 (stereo not shown) | 1.91 |
| CC1=C(C(=O)Nc2ccc(Cl)cc2)C(c2ccc(F)cc2)NC(=O)N1 (stereo not shown) | -1.2 |
| COC(=O)C(Cc1ccccc1)NC(=O)C1CC1c1ccccc1 (stereo not shown) | -2.77 |
| COc1ccc(C2Nc3ccccc3C(=O)N2C2CCCCC2)cc1 (stereo not shown) | -7.02 |
| COc1cccc(Cn2c(=O)n(CCc3ccccc3)c(=O)c3cccnc32)c1 | 3.32 |
| CC1CCCCN1Cc1ccc(-c2nn[nH]n2)cc1 (stereo not shown) | 1.12 |
| CCOC(=O)c1cnc(-c2ccccc2)nc1NCc1ccccc1 | 1.91 |
| COc1ccc(OC)c(NC(=O)c2ccc(CSc3ncccn3)cc2)c1 | -2.98 |
| Cc1ccc(-n2ncc3c(N4CCOCC4)ncnc32)cc1C | 3.36 |
| O=C1CC(Sc2ccc(F)cc2)C(=O)N1c1ccccc1 (stereo not shown) | 0.528 |
| CCc1ccc(S(=O)(=O)/N=C2\C=CC(=O)c3ccccc32)cc1 | -1.52 |
| Cc1nc2c(C(=O)NCC3CCCO3)cnn2c(C)c1Cc1ccccc1Cl (stereo not shown) | -4.06 |
| CC(C)CCNC(=O)c1noc2c1COc1ccccc1-2 | 88.5 |
| CCN(CC)S(=O)(=O)c1ccc(-c2csc(Nc3ccc(F)cc3)n2)cc1 | -2.42 |
| CC(C)N(Cc1nc(-c2ccccc2)no1)C(=O)CC(c1ccccc1)c1ccccc1 | -4.62 |
| CCOC(=O)c1[nH]c2ccc(Cl)cc2c1-c1ccccc1 | 3.48 |
| CN(CC(=O)NCCc1ccc(Cl)cc1)S(=O)(=O)c1ccc(-c2ccc(O)nn2)s1 | -3.49 |
| Cc1ccc(C2C(C#N)=C(N)Oc3c2sc2ccccc32)o1 (stereo not shown) | -2.07 |
| Cc1cc(-c2cccs2)c2c(N)c(C(=O)c3ccc4c(c3)OCCO4)sc2n1 | 3.62 |
| CC(=O)N1CCN(C2=NC(=O)/C(=C/c3ccccc3O)S2)CC1 | 27.7 |
| CC(C)OCCCn1c(=O)c2ccccc2n2c(CCC(=O)NCCC3=CCCCC3)nnc12 | -1.44 |

| SMILES | % Inhibition @ 10 uM [%] |
| --- | --- |
| O=C(Nc1ccc(Cl)cc1)c1cc(Cl)cc(Cl)c1O | 0.22 |
| Cc1ccc(-n2nc3c(=O)n(CCCC(=O)N4CCN(C5CCCCC5)CC4)nc(C)c3c2C)cc1 | -0.486 |
| Cc1ccc2c(c1)cc1c(O)nncn12 | 3.3 |
| CC1CCc2c(sc3ncnc(N4CC5(C)CC4CC(C)(C)C5)c23)C1 (stereo not shown) | -4.51 |
| CN(Cc1c(Cl)cccc1Cl)CC(O)c1ccccc1 (stereo not shown) | -3.42 |
| COc1ccc(/C(O)=C/C=N/Cc2ccc(F)cc2)cc1OC | -3.85 |
| Cc1cccc(NC(=O)CN2C(=O)c3ccccc3S2(=O)=O)c1 | 11.9 |
| CC(C)NS(=O)(=O)c1ccc(CCC(=O)NCc2ccco2)cc1 | -1.44 |
| Cc1cc(C)c(C)c(S(=O)(=O)Nc2cccnc2)c1C | -5.49 |
| COc1ccc2cc(-n3nc(C)cc3C)c(-n3nc(C)cc3C)cc2c1 | 0.947 |
| CCN(Cc1ccccc1)C(=O)c1sc2nc(C)c(Cl)c(C)c2c1N | -4.35 |
| CCOC(=O)c1cc(-c2ccc(OC)cc2OC)no1 | 10.9 |
| COCCNC(=O)CSc1[nH]c(-c2cccc(OC)c2)nc1-c1ccccc1 | 0.163 |
| COc1ccc(-n2nnc3c(=O)n(CC(=O)N4CCC(C)CC4)cnc32)cc1 | -2.16 |
| CC(Cc1ccccc1F)NCCN1CCCCC1 (stereo not shown) | -2.02 |
| COc1ccc(/C=C/c2nn3c(-c4ccc(C)cc4)nnc3s2)cc1 | 6.01 |
| CCOc1cccc2c1OC1(CCC(C)CC1)N1N=C(c3ccc(C)o3)CC21 (stereo not shown) | 21.3 |
| O=C(NCCC1=CCCCC1)C1CCN(S(=O)(=O)c2ccc(-n3cnnn3)cc2)CC1 | 5.43 |
| CC(C)(C)c1ccc(OCC(=O)NCc2nc(-c3ccccc3)no2)cc1 | -3.24 |
| CCN(CC)CCN(CC)C1CCCC(C)C1 (stereo not shown) | -3.27 |
| O=C(c1ccccc1)N1CC[C@H](O)[C@H]2CCCC[C@H]21 | -6.47 |
| COc1cc2c(cc1OC)C(C(=O)NCC1CCCO1)C(c1cccs1)N(C)C2=O (stereo not shown) | 2.59 |
| COc1ccc2cc3c(N)nn(C(=O)Cc4ccc(Cl)cc4)c3nc2c1 | 1.08 |
| Cc1nn2c(O)cc(Cc3ccccc3)nc2c1-c1ccc(Cl)cc1 | -5.28 |
